The list shows a part of the results. The full chains were built here from the parent and the listed change. Values near 0.05 are background.
B1: TEV protease; numbered along this chain (parent)
chain: MGESLFKGPRDYNPISSSICHLTNESDGHTTSLYGIGFGPFIITNKHLFRRNNGTLVVQSLHGVFKVKDTTTLQQHLVDGRDMIIIRMPKDFPPFPQKLKFREPQREERICLVTTNFQTKSMSSMVSDTSCTFPSGDGIFWKHWIQTKDGQCGSPLVSTRDGFIVGIHSASNFTNTNNYFTSVPKNFMELLTNQEAQQWVSGWRLNADSVLWGGHKVFMVKPEEPFQPVKEATQL

Variants of: B1
Experiment: raw area under fraction-flipped curve 0-4 h after induction (AUC4h, not background-subtracted), DNA-recorder readout of cleavage of the substrate (dimensionless); higher = more cleavage of the substrate by the protease variant
Conditions: temperature: 34 °C; time window: 0-4 h after rhamnose induction
Experimental: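 In vivo DNA recorder in E. coli TOP10(DE3) ΔrhaA at 34 °C. Each TEVp single-site mutant (parent TEVp 0) is paired with a single-site variant of the 7-mer TEVs (canonical ENLYFQ|S). The substrate sits between flexible linkers in a Bxb1-sfGFP-TEVs-SsrA fusion, so cleavage stabilises Bxb1 and speeds flipping of a recombination array, read by NGS. The value is the raw area under the fraction-flipped curve over 0-4 h after rhamnose induction (AUC4h), with ≥20 reads per time point. It is not background-subtracted; inactive controls average about 0.047.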
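Further: Bxb1 expression induced with 0.2% (w/v) L-rhamnose at OD600 near 0.5, cultures sampled hourly, flipped fraction per protease–substrate barcode pair counted by paired-end Illumina sequencing.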

Variant	area with substrate ENLYAQS	area with substrate ENLYCQS	area with substrate ENLYDQS	area with substrate ENLYEQS	area with substrate ENLYGQS	area with substrate ENLYHQS	area with substrate ENLYIQS	area with substrate ENLYKQS	area with substrate ENLYMQS	area with substrate ENLYNQS	area with substrate ENLYPQS	area with substrate ENLYRQS	area with substrate ENLYSQS	area with substrate ENLYVQS	area with substrate ENLYLQS	area with substrate ENLYQQS	area with substrate ENLYTQS	area with substrate ENLYWQS	area with substrate ENLYYQS
MGESLFKGPRDYNPISSSICHLTNESDGHTTSLYGIGFGPFIITNKHLRRRNNGTLVVQSLHGVFKVKDTTTLQQHLVDGRDMIIIRMPKDFPPFPQKLKFREPQREERICLVTTNFQTKSMSSMVSDTSCTFPSGDGIFWKHWIQTKDGQCGSPLVSTRDGFIVGIHSASNFTNTNNYFTSVPKNFMELLTNQEAQQWVSGWRLNADSVLWGGHKVFMVKPEEPFQPVKEATQL [F49R]	0.0667	0.0577	0.063	0.0664	0.0578	0.0424	0.0582	0.0453	0.0559	0.055	0.0614	0.0655	0.0593	0.0621					
MGESLFKGPRDYNPISSSICHLTNESDGHTTSLYGIGFGPFIITNKHLGRRNNGTLVVQSLHGVFKVKDTTTLQQHLVDGRDMIIIRMPKDFPPFPQKLKFREPQREERICLVTTNFQTKSMSSMVSDTSCTFPSGDGIFWKHWIQTKDGQCGSPLVSTRDGFIVGIHSASNFTNTNNYFTSVPKNFMELLTNQEAQQWVSGWRLNADSVLWGGHKVFMVKPEEPFQPVKEATQL [F49G]	0.064	0.0526	0.0549	0.0567	0.0486	0.0614	0.0455	0.0511	0.0502	0.0564	0.0575		0.0609	0.0506	0.0854	0.0513	0.0706	0.0445	0.0561
MGESLFKGPRDYNPISSSICHLTNESDGHTTSLYGIGFGPFIITNKHLPRRNNGTLVVQSLHGVFKVKDTTTLQQHLVDGRDMIIIRMPKDFPPFPQKLKFREPQREERICLVTTNFQTKSMSSMVSDTSCTFPSGDGIFWKHWIQTKDGQCGSPLVSTRDGFIVGIHSASNFTNTNNYFTSVPKNFMELLTNQEAQQWVSGWRLNADSVLWGGHKVFMVKPEEPFQPVKEATQL [F49P]	0.0648		0.0644	0.0654	0.0996	0.057	0.0525	0.0693	0.0592	0.0553	0.0532	0.0579	0.0612	0.0518		0.0636	0.0567	0.0557	0.0401
MGESLFKGPRDYNPISSSICHLTNESDGHTTSLYGEGFGPFIITNKHLFRRNNGTLVVQSLHGVFKVKDTTTLQQHLVDGRDMIIIRMPKDFPPFPQKLKFREPQREERICLVTTNFQTKSMSSMVSDTSCTFPSGDGIFWKHWIQTKDGQCGSPLVSTRDGFIVGIHSASNFTNTNNYFTSVPKNFMELLTNQEAQQWVSGWRLNADSVLWGGHKVFMVKPEEPFQPVKEATQL [I36E]	0.0501	0.0431	0.0359	0.0506	0.0254	0.0635	0.0496	0.0522	0.0423	0.0521	0.0478	0.0385	0.0509	0.0473				0.0447	0.0337
MGESLFKGPRDYNPISSSICHLTNESDGHTTSLYGRGFGPFIITNKHLFRRNNGTLVVQSLHGVFKVKDTTTLQQHLVDGRDMIIIRMPKDFPPFPQKLKFREPQREERICLVTTNFQTKSMSSMVSDTSCTFPSGDGIFWKHWIQTKDGQCGSPLVSTRDGFIVGIHSASNFTNTNNYFTSVPKNFMELLTNQEAQQWVSGWRLNADSVLWGGHKVFMVKPEEPFQPVKEATQL [I36R]	0.0517	0.076	0.0525	0.0528	0.0466	0.0534	0.0465	0.0463	0.0491	0.0474	0.0403	0.0602	0.044	0.059	0.0365	0.0478	0.0488	0.046	0.0425
MGESLFKGPRDYNPISSSICHLTNESDGHTTSLYGVGFGPFIITNKHLFRRNNGTLVVQSLHGVFKVKDTTTLQQHLVDGRDMIIIRMPKDFPPFPQKLKFREPQREERICLVTTNFQTKSMSSMVSDTSCTFPSGDGIFWKHWIQTKDGQCGSPLVSTRDGFIVGIHSASNFTNTNNYFTSVPKNFMELLTNQEAQQWVSGWRLNADSVLWGGHKVFMVKPEEPFQPVKEATQL [I36V]	0.119		0.0688	0.0488	0.0639	0.0541		0.059		0.0735		0.0668	0.0672	0.131	0.0555	0.0528		0.0647	0.0566
MGESLFKGPRDYNPISSSICHLTNESDGHTTSLYGIGFGPFIITNKNLFRRNNGTLVVQSLHGVFKVKDTTTLQQHLVDGRDMIIIRMPKDFPPFPQKLKFREPQREERICLVTTNFQTKSMSSMVSDTSCTFPSGDGIFWKHWIQTKDGQCGSPLVSTRDGFIVGIHSASNFTNTNNYFTSVPKNFMELLTNQEAQQWVSGWRLNADSVLWGGHKVFMVKPEEPFQPVKEATQL [H47N]	0.0618		0.0711	0.0657	0.0851	0.0576	0.0582	0.0568	0.0614	0.0612	0.0454	0.0401		0.0649		0.052	0.0918	0.0497	0.0593
MGESLFKGPRDYNPISSSICHLTNESDGHTTSLYGIGFGPFIITNKYLFRRNNGTLVVQSLHGVFKVKDTTTLQQHLVDGRDMIIIRMPKDFPPFPQKLKFREPQREERICLVTTNFQTKSMSSMVSDTSCTFPSGDGIFWKHWIQTKDGQCGSPLVSTRDGFIVGIHSASNFTNTNNYFTSVPKNFMELLTNQEAQQWVSGWRLNADSVLWGGHKVFMVKPEEPFQPVKEATQL [H47Y]	0.0607	0.0593	0.0628	0.0508	0.0651	0.0554		0.0541	0.0427	0.0543	0.0598		0.0776	0.0621		0.0595	0.0649	0.0559	0.0415
